This sample is rich in variants without activity.
B1: tRNA (parent)
chain: CUCUCGGUAGCCAAGUUGGUUUAAGGCGCAAGACUUUAAUUUAUCACUACGAAAUCUUGAGAUCGGGCGUUCGACUCGCCCCCGGGAGAUUUUUUCCUCGAGCAA

Variants of: B1
Assay: nonsense suppression (GFP-seq) (ratio to wild type); higher = more function; SUP4oc tRNA, yeast GFP reporter sort-seq
Outline: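 Each variant's nonsense suppression (GFPSEQ) is a cell-share-weighted bin median GFP/RFP relative to the unmutated parent tRNA. Yeast with genome-integrated tRNA variants from a ~3% random-mutation library, a galactose-driven GFP ochre reporter and RFP were grown in raffinose/galactose medium with 80 mg/L adenine, then sorted into GFP/RFP bins for Illumina sequencing. Variants needed ≥100 reads and ≥30 cells.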
In the case of CUCUCGGUAGCCAAGUUGGUUUAAGGCGCAAGACUUUAAUUUAUCACUACGAAAUCUUGAGAACGGGCGUUCGACCCGCCCCCGGGAGAUUUUUUCCUCGAGCAA, the nonsense suppression is reported as 0.748.
In the case of CUCUCGGUAGCCAAGUUGGUUUAAGGCGCAAGACUUUAAUUUAUCACUACGAAAUCUUGAGACCGGGCGUUCGCCUCGCCCCCGGGAGAUUUUUUCCUCGAGCAA, the nonsense suppression is reported as no more than 0.026.
CUCUCGGUAGCCAAGUUGGUUUAAGGCGCAAGACUUUAAUUUAUCACUACGAAAUCUUGAGACCGGGCGUUCGACUCGCCCCCGGGCGAUUUUUUCCUCGAGCAA gave a nonsense suppression of no more than 0.026.
Variant CUCUCGGUAGCCAAGUUGGUUUAAGGCGCAAGACUUUAAUUUAUCACUACGAAAUCUUGAGACCGGGCGUUAGACUCGCCCCCGGGAGAUUUUUUCCUCGAGCAA has a nonsense suppression of no more than 0.026.
CUCUCGGUAGCCAAGUUGGUUUAAGGCGCAAGACUUUAAUUUAUCACUACGAAAUCUUGAGACCGGGCGUUGGACUCGCCCGCGGGAGAUUUUUUCCUCGAGCAA gave a nonsense suppression of no more than 0.026.
CUCUCGGUAGCCAAGUUGGUUUAAGGCGCAAGACUUUAAUUUAUCACUACGAAAUCUUGAGACCGGGCGUUCGAUUCGCCCCCGGGAGAUUUUUUCCUCGAGCAA gave a nonsense suppression of 1.1.
CUCUCGGUAGCCAAGUUGGUUUAAGGCGCAAGACUUUAAUUUAUCACUACGAAAUCUUGAGACCGGGCGUUCGACUCGCCCAAGGGAGAUUUUUUCCUCGAGCAA showed a nonsense suppression of no more than 0.026.
Work on CUCUCGGUAGCCAAGUUGGUUUAAGGCGCAAGACUUUAAUUUAUCACUACGAAAUCUUGAGACCGAGCGUUCGACUCGGCCCCGGGAGAUUUUUUCCUCGAGCAA yielded a nonsense suppression of no more than 0.026.
Variant CUCUCGGUAGCCAAGUUGGUUUAAGGCGCAAGACUUUAAUUUAUCACUACGAAAUCUUGAGACCGGACGUUCCACUCGCCCCCGGGAGAUUUUUUCCUCGAGCAA has a nonsense suppression of no more than 0.026.
For CUCUCGGUAGCCAAGUUGGUUUAAGGCGCAAGACUUUAAUUUAUCACUACGAAAUCUUGAGACCGGACGCUCGACUCGCCCCCGCGAGAUUUUUUCCUCGAGCAA, the nonsense suppression was no more than 0.026.
In the case of CUCUCGGUAGCCAAGUUGGUUUAAGGCGCAAGACUUUAAUUUAUCACUACGAAAUCUUGAGACCGGCCGUUCGACUCGUCCCGGGGAGAUUUUUUCCUCGAGCAA, the nonsense suppression is reported as no more than 0.026.
In the case of CUCUCGGUAGCCAAGUUGGUUUAAGGCGCAAGACUUUAAUUUAUCACUACGAAAUCUUGAGACCGGGCCUUCGACUCGCCCCCGGGAGAUUUUUUCCUCGAGCAA, the nonsense suppression is reported as no more than 0.026.
CUCUCGGUAGCCAAGUUGGUUUAAGGCGCAAGACUUUAAUUUAUCACUACGAAAUCUUGAGACCGGGCGUUCGACUCGCCCCCGGAAGAUUUUUUCCUCGAGCAA gave a nonsense suppression of no more than 0.026.
CUCUCGGUAGCCAAGUUGGUUUAAGGCGCAAGACUUUAAUUUAUCACUACGAAAUCUUGAGACCGGGCGUUCGACUCGCCCCCGGGAUAUUUUUUCCUCGAGCAA gave a nonsense suppression of no more than 0.026.
With CUCUCGGUAGCCAAGUUGGUUUAAGGCGCAAGACUUUAAUUUAUCACUACGAAAUCUUGAGACCGGGCGUACGACUCGCCCCACGGAGAUUUUUUCCUCGAGCAA the nonsense suppression was no more than 0.026.
Work on CUCUCGGUAGCCAAGUUGGUUUAAGGCGCAAGACUUUAAUUUAUCACUACGAAAUCUUGAGACCGGGCGUCCGGCUCGCCCCCGGGAGAUUUUUUCCUCGAGCAA yielded a nonsense suppression of no more than 0.026.
CUCUCGGUAGCCAAGUUGGUUUAAGGCGCAAGACUUUAAUUUAUCACUACGAAAUCUUGAGACCGGGCGUGCGACUCGCCCCCGGGAGAUUUUUUCCUCGAGCAA showed a nonsense suppression of no more than 0.026.
Variant CUCUCGGUAGCCAAGUUGGUUUAAGGCGCAAGACUUUAAUUUAUCACUACGAAAUCUUGAGAGCGGGCGUUCGCAUCGCCCCCGGGAGAUUUUUUCCUCGAGCAA has a nonsense suppression of no more than 0.026.
CUCUCGGUAGCCAAGUUGGUUUAAGGCGCAAGACUUUAAUUUAUCACUACGAAAUCUUGAGAGCGGGCGUUCGACUCGGCCCCGCGAGAUUUUUUCCUCGAGCAA gave a nonsense suppression of no more than 0.026.
In the case of CUCUCGGUAGCCAAGUUGGUUUAAGGCGCAAGACUUUAAUUUAUCACUACGAAAUCUUGAGAGCGGGCGUUCGACUCGCCCCGGGGAGAUUUUUUCCUCGAGCAA, the nonsense suppression is reported as no more than 0.026.
CUCUCGGUAGCCAAGUUGGUUUAAGGCGCAAGACUUUAAUUUAUCACUACGAAAUCUUGAGAGCGAGCGUUCGACUCGCCCCCGGGAGAUUUUUUCCUCGAGCAA gave a nonsense suppression of no more than 0.026.
Variant CUCUCGGUAGCCAAGUUGGUUUAAGGCGCAAGACUUUAAUUUAUCACUACGAAAUCUUGAGAGCGGACGUUCGACUCGCCCCCGGGAGAUUUUUUCCUCGAGCAA has a nonsense suppression of 0.0444.
For CUCUCGGUAGCCAAGUUGGUUUAAGGCGCAAGACUUUAAUUUAUCACUACGAAAUCUUGAGAGCGGGCCUUCGACUCGCCCCCGGGAGAUUUUUUCCUCGAGCAA, the nonsense suppression was no more than 0.026.
CUCUCGGUAGCCAAGUUGGUUUAAGGCGCAAGACUUUAAUUUAUCACUACGAAAUCUUGAGAGCGGGCGUUCUACUCGCCCCCCGGAGAUUUUUUCCUCGAGCAA showed a nonsense suppression of no more than 0.026.
In the case of CUCUCGGUAGCCAAGUUGGUUUAAGGCGCAAGACUUUAAUUUAUCACUACGAAAUCUUGAGAGCGGGCGUUCGACUCUCCCCCGGGAGAUUUUUUCCUCGAGCAA, the nonsense suppression is reported as 0.0445.
For CUCUCGGUAGCCAAGUUGGUUUAAGGCGCAAGACUUUAAUUUAUCACUACGAAAUCUUGAGAGCGGGCGUUCGACUCGCCCCCGGGAAAUUUUUUCCUCGAGCAA, the nonsense suppression was no more than 0.026.
CUCUCGGUAGCCAAGUUGGUUUAAGGCGCAAGACUUUAAUUUAUCACUACGAAAUCUUGAGAGCGGGCGUCCGGCUCGCCCCCGAGAGGUUUUUUCCUCGAGCAA gave a nonsense suppression of no more than 0.026.
